PubChem BioAssay AID2675 (National Center for Advancing Translational Sciences (NCATS), 2010)
The whole screen tested about 280,000 compounds, of which about 100 (0.036%) were called active. Inconclusive results, whose numbers are uncertain, are shown with a selection of clear calls. Calls come from the whole dose curve; as a rule, active = well fitted inhibition curve with a large enough effect in the signal ratio, with a control signal flat (not every such curve was filed as active); inconclusive = small, poorly fitted or top-dose-only effect, or effect the other way, or a change in a side signal; inactive = no such curve, though single readings can be large or run the other way; the % refers to the signal ratio. A potency beside an inconclusive call is a rough fit, not a confirmed value. “Side channel” marks fits to a control or component signal instead of the main read-out.

The molecules below were run against Muscleblind-like protein 1 (Homo sapiens) (UniProt Q9NR56) (assay: qHTS Assay for Inhibitors of MBNL1-poly(CUG) RNA binding). Details: TR-FRET MBNL1-His/biotin-(CUG)12 binding, 665/545 ratio; activity change, negative = inhibition: at 57.5 µM (top of the series).
In short: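 MBNL1-His + Biotin-(CUG)12, cpd titration 92 nM–58 uM; Tb anti-His Ab 0.055 ng/ul, SA-XL665 5 nM (final); 60 min RT; ratiometric 665/545 nm, Ex 340 nm; normalized to buffer and full-complex controls.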
% is set by controls: 0 for no effect and ±100 for the full control effect; potency is the fitted concentration of half-maximal effect; tags give direction and shape of the fitted curve or compound fluorescence and quenching.

Chain of UniProt Q9NR56 (Q9NR56 whole entry, looked up): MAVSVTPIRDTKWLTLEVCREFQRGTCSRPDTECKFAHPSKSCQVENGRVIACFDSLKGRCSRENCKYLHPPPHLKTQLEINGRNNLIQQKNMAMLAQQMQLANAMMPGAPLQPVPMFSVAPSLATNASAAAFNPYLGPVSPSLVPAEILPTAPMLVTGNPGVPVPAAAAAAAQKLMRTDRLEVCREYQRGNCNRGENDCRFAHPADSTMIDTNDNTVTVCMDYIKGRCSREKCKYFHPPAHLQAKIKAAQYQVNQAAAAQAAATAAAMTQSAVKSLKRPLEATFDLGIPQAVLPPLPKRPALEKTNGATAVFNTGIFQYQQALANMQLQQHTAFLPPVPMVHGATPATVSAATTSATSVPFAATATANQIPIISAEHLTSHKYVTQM

**Q.** For COc1cc2c(ccc3cc(OC)c(OC)c(O)c32)cc1O, which Potency is on record?
**A.** inconclusive: 100 µM [inhibitor, single point]

**Q.** How did the Potency turn out when Cc1c([N+](=O)[O-])c([N+](=O)[O-])nn1CC(=O)NCCc1ccccc1 was run?
**A.** inconclusive: 15.8 µM [quencher, side channel, partial curve]

**Q.** COc1ccccc1OCc1nc(-c2ccc([N+](=O)[O-])cc2)no1 was tested. Which Potency did it give?
**A.** inconclusive: 12.6 µM [quencher, side channel, partial curve]

**Q.** For COc1cc2c(cc1OC)C(C)N(C(=O)c1cc3c(s1)-c1c(C)cccc1OC3)CC2 (stereo unspecified), which “activity change, negative = inhibition” value is on record?
**A.** inactive: 14.7%

**Q.** How did the “activity change, negative = inhibition” value turn out when CCN1CCN(CCCN(Cc2ccco2)C(=S)Nc2ccccc2Cl)CC1 was run?
**A.** inactive: -3.31%

**Q.** With O=c1/c(=C/c2ccco2)sc2n1CN(c1cccc(Br)c1)CN=2 as the molecule, how does the Potency read?
**A.** inconclusive: 14.1 µM [quencher, partial curve]

**Q.** For CCN1CC=C2C(C#N)=C(N)C(C#N)(C#N)C(CCc3ccccc3)C2C1 (stereo unspecified), which Potency is on record?
**A.** inconclusive: 15.8 µM [quencher, side channel, partial curve]

**Q.** For O=C(N/N=C/c1sc2ccccc2c1O)c1ccccc1, which Potency is on record?
**A.** inconclusive: 22.4 µM [quencher, side channel, single point]

**Q.** With CC(C)CN1C(=O)c2ccccc2C1(O)Cc1ccccc1 (stereo unspecified) as the molecule, how does the Potency read?
**A.** inconclusive: 79.4 µM [inhibitor, single point]

**Q.** Which Potency does the source give for CCOc1ccc(/C=N/NC(=O)C(=O)N2CCCCCC2)c2ccccc12 here?
**A.** inconclusive: 28.2 µM [quencher, side channel, single point]

**Q.** Which “activity change, negative = inhibition” value does the source give for CCOC(=O)c1cc(-c2ccccc2)nn1CCC#N here?
**A.** inactive: 2.85%

**Q.** For CCOC(=O)C1CCN(c2c(N3CCN(Cc4ccccc4)CC3)c(=O)c2=O)CC1, which Potency is on record?
**A.** inconclusive: 31.6 µM [quencher, side channel, single point]

**Q.** COC(=O)N/N=C/c1ccc(-c2cccc(Cl)c2)o1 was tested. Which Potency did it give?
**A.** inconclusive: 14.1 µM [quencher, side channel, partial curve]

**Q.** How did the “activity change, negative = inhibition” value turn out when O=C(O)c1cccc(-n2cccc2/C=C/[N+](=O)[O-])c1 was run?
**A.** inactive: 2.42%

**Q.** How did the “activity change, negative = inhibition” value turn out when Cc1ccc(C2CC(c3cccs3)=NN2C(=O)c2ccc(Br)o2)cc1 (stereo unspecified) was run?
**A.** inactive: 40.3%

**Q.** Which Potency does the source give for O=C(Cn1cnc2cc([N+](=O)[O-])ccc2c1=O)N(Cc1ccccc1)C1CCS(=O)(=O)C1 (stereo unspecified) here?
**A.** inconclusive: 14.1 µM [quencher, side channel, partial curve]

**Q.** Which Potency does the source give for COC(=O)C1=C(CSc2nc3c(cc2C#N)CN(C)CC3)OC(N)=C(C#N)C1c1ccccc1F (stereo unspecified) here?
**A.** inconclusive: 11.2 µM [quencher, side channel, single point]

**Q.** How did the Potency turn out when CN(C)Cc1c(C(=O)N/N=C/c2cccnc2)nnn1-c1nonc1N was run?
**A.** inconclusive: 15.8 µM [quencher, side channel, single point]

**Q.** With c1ccc2c(-c3nc4ncccc4o3)cccc2c1 as the molecule, how does the Potency read?
**A.** inconclusive: 14.1 µM [quencher, side channel, partial curve]

**Q.** For COc1ccccc1/C=C/C(=O)NCC(=O)N/N=C/c1ccccc1[N+](=O)[O-], which Potency is on record?
**A.** inconclusive: 11.2 µM [quencher, partial curve]

**Q.** CCc1ccccc1NC(=O)CCC(=O)OCC(=O)c1ccc(-c2ccccc2)cc1 was tested. Which Potency did it give?
**A.** inconclusive: 5.01 µM [quencher, side channel, full curve, poor fit]

**Q.** For CCOc1c2ccc(C(=O)NCc3ccccc3OC)cc2nn1CC, which Potency is on record?
**A.** inconclusive: 39.8 µM [quencher, side channel, single point]

**Q.** With Oc1ccccc1C1=Nc2ncnn2C(c2ccccc2)C1 (stereo unspecified) as the molecule, how does the Potency read?
**A.** inconclusive: 28.2 µM [quencher, side channel, single point]

**Q.** COc1ccc(OC)c(N=C2C(=O)Nc3ccccc32)c1 was tested. Which Potency did it give?
**A.** inconclusive: 20 µM [quencher, partial curve]

**Q.** How did the Potency turn out when CC1=CC(=O)C=C(C)C1=NOc1ccccc1[N+](=O)[O-] was run?
**A.** inconclusive: 3.16 µM [quencher, side channel, single point]

**Q.** For Cn1c(CCCCCN)nc2ccccc21, which “activity change, negative = inhibition” value is on record?
**A.** inactive: -10.3%

**Q.** Which Potency does the source give for O=C1c2cccc3cccc(c23)C(=O)N1Nc1ccccc1 here?
**A.** inconclusive: 15.8 µM [quencher, side channel, partial curve]

**Q.** How did the Potency turn out when Nc1nnnn1/N=C/C(Br)=C/c1ccccc1 was run?
**A.** inconclusive: 17.8 µM [quencher, side channel, partial curve]

**Q.** For O=C(c1ccccc1)N1CCN(CC(O)COC2CCCCC2)CC1 (stereo unspecified), which Potency is on record?
**A.** inconclusive: 28.2 µM [fluorescent, side channel, partial curve]

**Q.** Which Potency does the source give for COc1ccc(/C=C2\CCn3c2nc2cc(C(=O)O)ccc2c3=O)cc1 here?
**A.** inconclusive: 3.55 µM [quencher, side channel, full curve]

**Q.** How did the Potency turn out when CCNC(=O)c1cc2c(=O)n3cccc(C)c3nc2n(Cc2ccc(C)cc2)c1=N was run?
**A.** inconclusive: 3.55 µM [quencher, side channel, full curve]

**Q.** With CCOc1cc(C)ccc1OCc1nnc(SCC(=O)c2cccc([N+](=O)[O-])c2)n1C as the molecule, how does the Potency read?
**A.** inconclusive: 7.94 µM [quencher, side channel, partial curve]

**Q.** With O=C(O)CSc1nc2ccccc2n1-c1ccccc1 as the molecule, how does the Potency read?
**A.** inconclusive: 100 µM [inhibitor, single point]

**Q.** With COC(=O)Cn1c(=NC(=O)C(C)C)sc2c(C)cc(C)cc21 as the molecule, how does the Potency read?
**A.** inconclusive: 15.8 µM [quencher, side channel, single point]

**Q.** COc1ccc(CCNC(=O)Cc2ccc([N+](=O)[O-])cc2)cc1OC was tested. Which Potency did it give?
**A.** inconclusive: 39.8 µM [quencher, side channel, single point]

**Q.** Which Potency does the source give for Cc1cc(C)c[n+](CC(=O)c2cc3ccccc3oc2=O)c1 here?
**A.** inconclusive: 17.8 µM [quencher, side channel, partial curve]

**Q.** For Cc1ccc(S(=O)(=O)Nc2cc(C(=O)NCCN(C)C)ccc2N2CCCCC2)cc1, which “activity change, negative = inhibition” value is on record?
**A.** inactive: -3.39%

**Q.** How did the Potency turn out when O=C(CSc1c2c(nc3ccccc13)CCCC2)NCc1ccco1 was run?
**A.** inconclusive: 31.6 µM [quencher, single point]

**Q.** For O=c1c(-c2ccco2)[n+]([O-])c2ccccc2n1OCc1ccccn1, which Potency is on record?
**A.** inconclusive: 2.51 µM [quencher, side channel, full curve]

**Q.** With CCC(c1nnnn1CCOC)N1CCN(Cc2ccccc2)CC1 (stereo unspecified) as the molecule, how does the “activity change, negative = inhibition” value read?
**A.** inactive: -3.4%

**Q.** With Cc1n(Cc2ccccc2)c2cc([N+](=O)[O-])ccc2[n+]1Cc1ccccc1 as the molecule, how does the Potency read?
**A.** inconclusive: 17.8 µM [quencher, side channel, partial curve]

**Q.** Which Potency does the source give for O=c1ccc2c(-c3ccccc3)c3ccc(O)cc3oc-2c1 here?
**A.** inconclusive: 17.8 µM [quencher, partial curve]

**Q.** Which Potency does the source give for O=C1Nc2ccc(F)cc2C12Nc1ccccc1-c1nnc(SCc3ccccc3)nc1O2 (stereo unspecified) here?
**A.** inconclusive: 11.2 µM [quencher, side channel, partial curve, poor fit]

**Q.** With COc1ccc(N2C(=O)CN(Cc3ccc(OC)c(OC)c3)C2=S)cc1 as the molecule, how does the “activity change, negative = inhibition” value read?
**A.** inactive: 6.21%

**Q.** Cn1cc(/C=C/c2cc[n+](C)cc2)c2cc(F)ccc21 was tested. Which Potency did it give?
**A.** inconclusive: 10 µM [quencher, side channel, partial curve]

**Q.** How did the “activity change, negative = inhibition” value turn out when Cn1c(=O)c2c(nc(SCC(=O)c3cccs3)n2Cc2ccc(F)cc2)n(C)c1=O was run?
**A.** inactive: 31.9%

**Q.** O=C1C(Cl)=C(NCC2CCCO2)C(=O)N1C1CCCCC1 (stereo unspecified) was tested. Which Potency did it give?
**A.** inconclusive: 31.6 µM [quencher, side channel, single point]

**Q.** Which “activity change, negative = inhibition” value does the source give for Cc1ccc(NC(=S)NNC(=O)c2ccco2)cc1 here?
**A.** inactive: -8.45%

**Q.** O=C(CSc1ccc(F)cc1)Nc1ccc2c(c1)C(=O)NC2=O was tested. Which Potency did it give?
**A.** inconclusive: 15.8 µM [quencher, side channel, partial curve]

**Q.** With O=C1COc2ccc(C(=O)C[n+]3cccc(O)c3)cc2N1 as the molecule, how does the Potency read?
**A.** inconclusive: 14.1 µM [quencher, side channel, partial curve]

**Q.** With COc1ccc(CNC(=O)C/C(C)=N/NC(=O)c2ccc([N+](=O)[O-])cc2Cl)cc1 as the molecule, how does the Potency read?
**A.** inconclusive: 15.8 µM [quencher, side channel, partial curve]

**Q.** For Cc1nc2c3cc(F)ccc3n(CCN3CCCCC3)c2s1, which Potency is on record?
**A.** inconclusive: 63.1 µM [inhibitor, partial curve]

**Q.** With O=c1[nH]nc(Cc2ccc([N+](=O)[O-])cc2)c2ccccc12 as the molecule, how does the Potency read?
**A.** inconclusive: 14.1 µM [quencher, side channel, partial curve]

**Q.** Cc1ccc2c(Cl)c(C(=O)N/N=C/c3cccn3C)sc2c1 was tested. Which Potency did it give?
**A.** inconclusive: 31.6 µM [fluorescent, side channel, partial curve]

**Q.** For Cc1cc(=O)[nH]c(N2CCOCC2)n1, which “activity change, negative = inhibition” value is on record?
**A.** inactive: -0.473%

**Q.** With CCn1cc(CNC(=O)/C=C/c2ccc([N+](=O)[O-])cc2)cn1 as the molecule, how does the Potency read?
**A.** inconclusive: 2.82 µM [quencher, side channel, partial curve]

**Q.** O=C(C1=C(O)C(=O)N(CCN2CCOCC2)C1c1ccc(F)cc1)c1cc2ccccc2o1 (stereo unspecified) was tested. Which Potency did it give?
**A.** inconclusive: 15.8 µM [quencher, side channel, partial curve]

**Q.** For O=[N+]([O-])c1ccc2[nH]c3c(c2c1)CCCC3, which Potency is on record?
**A.** inconclusive: 31.6 µM [quencher, side channel, single point]

**Q.** CCN(Cc1ccncc1)Cc1c(O)ccc2ccccc12 was tested. Which Potency did it give?
**A.** inconclusive: 39.8 µM [quencher, side channel, single point]

**Q.** COc1ccc(CCNC(=O)c2cc(=O)c3cc(C)ccc3o2)cc1OC was tested. Which Potency did it give?
**A.** inconclusive: 31.6 µM [quencher, side channel, single point]

**Q.** With Cc1ccc([N+](=O)[O-])cc1NC(=O)C1CCN(S(C)(=O)=O)CC1 as the molecule, how does the Potency read?
**A.** inconclusive: 39.8 µM [quencher, side channel, single point]
